In paper PMC4336329 (PLoS ONE, 2015):
The campaign covered roughly 310,000 compounds. About 2,200 (0.71%) showed an effect of 50% or more. Effects have a minus sign here. The list shows a part of the results.

molecular target: human ether-à-go-go-related gene (hERG) potassium channel (human, UniProt Q12809); experiment: primary screen, population patch clamp on CHO cells stably expressing hERG
Sequence (Q12809 whole entry, looked up): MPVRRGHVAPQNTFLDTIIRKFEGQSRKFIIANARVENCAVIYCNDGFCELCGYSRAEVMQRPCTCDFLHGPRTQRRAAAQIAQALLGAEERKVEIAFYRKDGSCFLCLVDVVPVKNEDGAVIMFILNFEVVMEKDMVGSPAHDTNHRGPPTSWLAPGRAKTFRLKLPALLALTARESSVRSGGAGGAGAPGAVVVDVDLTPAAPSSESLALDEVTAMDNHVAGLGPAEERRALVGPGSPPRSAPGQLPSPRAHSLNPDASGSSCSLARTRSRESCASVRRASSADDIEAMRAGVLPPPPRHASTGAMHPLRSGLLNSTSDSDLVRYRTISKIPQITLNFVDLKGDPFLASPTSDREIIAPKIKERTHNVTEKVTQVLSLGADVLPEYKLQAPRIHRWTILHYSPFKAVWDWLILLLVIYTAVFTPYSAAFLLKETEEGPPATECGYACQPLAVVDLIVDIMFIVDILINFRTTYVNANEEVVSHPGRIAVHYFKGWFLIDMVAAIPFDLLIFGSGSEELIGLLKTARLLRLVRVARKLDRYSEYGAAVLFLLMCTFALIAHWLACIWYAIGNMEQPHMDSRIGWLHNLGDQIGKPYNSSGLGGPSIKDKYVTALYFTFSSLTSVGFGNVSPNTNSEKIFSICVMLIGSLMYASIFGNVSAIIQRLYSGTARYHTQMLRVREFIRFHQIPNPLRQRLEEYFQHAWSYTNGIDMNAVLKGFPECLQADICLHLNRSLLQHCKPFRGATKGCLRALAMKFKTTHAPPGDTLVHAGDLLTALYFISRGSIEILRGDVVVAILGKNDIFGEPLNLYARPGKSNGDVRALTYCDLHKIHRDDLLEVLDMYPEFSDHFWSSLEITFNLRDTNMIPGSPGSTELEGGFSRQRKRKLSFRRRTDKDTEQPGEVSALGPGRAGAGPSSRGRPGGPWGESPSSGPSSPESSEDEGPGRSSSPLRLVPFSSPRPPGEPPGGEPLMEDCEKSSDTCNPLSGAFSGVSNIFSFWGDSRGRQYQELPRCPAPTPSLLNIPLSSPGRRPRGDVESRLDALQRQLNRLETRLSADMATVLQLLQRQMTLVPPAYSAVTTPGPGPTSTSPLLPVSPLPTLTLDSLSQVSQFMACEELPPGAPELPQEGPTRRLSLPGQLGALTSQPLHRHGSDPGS

SMILES	hERG current change (%, negative = inhibition) at 1uM
Cc1ccc(Cl)cc1N1CCN(C(=O)c2ccc3nc[nH]c3c2)CC1	-2.09%
Cl.Clc1cc(I)cc(Cl)c1NC1=NCCN1	9.07%
CCN(CC)CCNC(=O)c1cc2c(-c3ccc(Cl)cc3)nn(C)c2s1	-13.3%
O=C(Cc1ccc(-n2c(=O)c3sccc3n(CC(=O)Nc3ccccc3)c2=O)cc1)NCc1ccco1	16.2%
CC(=O)Nc1ccc(/C(C)=N/Nc2nc(N3CCOCC3)nc(N3CCOCC3)n2)cc1	19%
Nc1c(Cl)ncnc1N1CCCC1	18.1%
O/N=C1/C2C3CC4C5C3C1C5C1(OCCO1)C42 (stereo not drawn)	12.5%
Cc1ccc(NS(=O)(=O)c2ccc(C(=O)NCC3CCCO3)cc2)cc1 (stereo not drawn)	1.84%
CC(C)N(C(=O)Cn1c(SCC(=O)Nc2nccs2)nc2ccccc21)C(C)C	13.8%
Cc1sc(NC(=O)CCS(=O)(=O)c2ccccc2)c(C#N)c1C	13.8%
O=C1CCN(C(=O)c2ccccc2)C2CCCCC12 (stereo not drawn)	6.67%
COc1cccc(CN2CCC(C(=O)N3CCN(Cc4ccc5c(c4)OCO5)CC3)CC2)c1	4.46%
C[C@H](NC(=O)N1CCn2c1nc1ccccc12)C(=O)NCc1ccc2c(c1)OCO2	-3.38%
Cc1cc(NC(=O)CSc2nc3ccccc3cc2C#N)no1	7.38%
CC(=O)NCCc1ccc(C(=O)CSc2nnc(C3CC3)n2C2CC2)cc1	25.9%
COC(=O)c1ccc(Cn2nnc3c(=O)[nH]c(C4CCCN(S(=O)(=O)c5cccc(Cl)c5)C4)nc32)cc1 (stereo not drawn)	8.83%
Cc1c(Br)c([N+](=O)[O-])nn1CC(=O)N1CCN(C23CC4CC(CC(C4)C2)C3)CC1	2.63%
CC(=O)NC(=S)Nc1cccc2ccc(C)nc12	9.62%
Cc1cc(NC(=O)CSc2nnc3c4c(C)c(C)sc4ncn23)no1	1.57%
Cc1ccc(CN2C(=O)c3ccccc3NC2c2cc(Br)ccc2O)cc1 (stereo not drawn)	8.02%
CN(CC(=O)Nc1ccccc1C(F)(F)F)C(=O)C1CCN(C(=O)c2ccc(Cl)cc2)CC1	2.31%
CNS(=O)(=O)c1cc(C(=O)NCc2ccco2)ccc1Cl	6.43%
CC(=O)Nc1ccc([N+](=O)[O-])c(CS(=O)(=O)c2ccc(C)cc2)c1[N+](=O)[O-]	-1.64%
Cc1ccc(NC(=O)CSc2ccccc2NC(=O)c2cccc(Cl)c2)cc1Cl	0.293%
